Repeats are few or missing, and single values can be far off.
Columns and labels:
[1] = system: CHO-K1; assay: micronucleus frequency (% of nucleated events); higher = more micronuclei (genotoxic)
[2] = system: CHO-K1; assay: hypodiploid nuclei frequency (% of nucleated events); higher = more hypodiploid events (aneugenic)
[3] = system: CHO-K1; assay: relative survival (nuclei to bead ratio vs DMSO control) (% of vehicle control); higher = more surviving cells
Description: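 Flow-cytometric in vitro micronucleus assay (Litron MicroFlow) in CHO-K1 cells in 96-well plates, 19 concentrations (4.5-200 µM, n=1 per concentration). Without S9, cells were exposed for 24 h and sampled at 48 h. With Aroclor 1254-induced rat liver S9, cells were exposed for 3-4 h and sampled at 27-28 h. Read-outs are %MN and %hypodiploid nuclei relative to nucleated events, and relative survival as the nuclei-to-bead ratio versus the 1% DMSO vehicle control (x100).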
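For hypodiploid nuclei frequency (% of nucleated events) in this document: hypodiploid nuclei gated on a flow cytometer with 488 nm excitation after SYTOX Green staining, cultures at 37 °C, positive controls vinblastine without S9 and cyclophosphamide with S9.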
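For micronucleus frequency (% of nucleated events) in this document: cells lysed with nuclei stained by SYTOX Green, then micronucleus-gated events counted against nucleated events by flow cytometry with 488 nm excitation.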
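For relative survival (nuclei to bead ratio vs DMSO control) in this document: Lysed-cell nuclei stained with SYTOX Green and counted against counting beads by flow cytometry at 488 nm excitation, with vinblastine (no S9) and cyclophosphamide (plus S9) as positive controls.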

O=[N+]([O-])c1ccc(O)c([N+](=O)[O-])c1 [2,4-Dinitrophenol]
Conditions | hypodiploid nuclei frequency, [2] [%] | micronucleus frequency, [1] [%] | relative survival, [3]
concentration: 4.5 (µM), S9 metabolic activation: with S9, exposure time: 3-4 hours | 0.4 | 2.3 | 65.5
concentration: 4.5 (µM), S9 metabolic activation: without S9, exposure time: 24 hours | 1.28 | 1.88 | 99.4
concentration: 5.63 (µM), S9 metabolic activation: with S9, exposure time: 3-4 hours | 0.38 | 1.82 | 76.7
concentration: 5.63 (µM), S9 metabolic activation: without S9, exposure time: 24 hours | 1.28 | 2.18 | 98.7
concentration: 7.04 (µM), S9 metabolic activation: with S9, exposure time: 3-4 hours | 0.34 | 2 | 92
concentration: 7.04 (µM), S9 metabolic activation: without S9, exposure time: 24 hours | 1.36 | 2.06 | 89.8
concentration: 8.8 (µM), S9 metabolic activation: with S9, exposure time: 3-4 hours | 0.38 | 2.04 | 94
concentration: 8.8 (µM), S9 metabolic activation: without S9, exposure time: 24 hours | 1.38 | 2.46 | 91
concentration: 11 (µM), S9 metabolic activation: with S9, exposure time: 3-4 hours | 0.36 | 2.04 | 76
concentration: 11 (µM), S9 metabolic activation: without S9, exposure time: 24 hours | 1 | 2.86 | 100
concentration: 13.7 (µM), S9 metabolic activation: with S9, exposure time: 3-4 hours | 0.5 | 2.68 | 77.1
concentration: 13.7 (µM), S9 metabolic activation: without S9, exposure time: 24 hours | 1.3 | 1.82 | 104
concentration: 17.2 (µM), S9 metabolic activation: with S9, exposure time: 3-4 hours | 0.22 | 2.52 | 86.6
concentration: 17.2 (µM), S9 metabolic activation: without S9, exposure time: 24 hours | 1.56 | 2.2 | 108
concentration: 21.5 (µM), S9 metabolic activation: with S9, exposure time: 3-4 hours | 0.32 | 1.24 | 98.3
concentration: 21.5 (µM), S9 metabolic activation: without S9, exposure time: 24 hours | 1.12 | 1.78 | 118
concentration: 26.8 (µM), S9 metabolic activation: with S9, exposure time: 3-4 hours | 0.28 | 1.38 | 118
concentration: 26.8 (µM), S9 metabolic activation: without S9, exposure time: 24 hours | 1.22 | 1.8 | 114
concentration: 33.6 (µM), S9 metabolic activation: with S9, exposure time: 3-4 hours | 0.2 | 1.28 | 95.5
concentration: 33.6 (µM), S9 metabolic activation: without S9, exposure time: 24 hours | 1.34 | 1.84 | 110
concentration: 41.9 (µM), S9 metabolic activation: with S9, exposure time: 3-4 hours | 0.38 | 1.82 | 87.1
concentration: 41.9 (µM), S9 metabolic activation: without S9, exposure time: 24 hours | 1.54 | 1.98 | 96.5
concentration: 52.4 (µM), S9 metabolic activation: with S9, exposure time: 3-4 hours | 0.14 | 1.78 | 90.1
concentration: 52.4 (µM), S9 metabolic activation: without S9, exposure time: 24 hours | 1.66 | 2.72 | 102
concentration: 65.5 (µM), S9 metabolic activation: with S9, exposure time: 3-4 hours | 0.28 | 1.78 | 83.4
concentration: 65.5 (µM), S9 metabolic activation: without S9, exposure time: 24 hours | 1.48 | 2.24 | 100
concentration: 81.9 (µM), S9 metabolic activation: with S9, exposure time: 3-4 hours | 0.3 | 1.7 | 93.6
concentration: 81.9 (µM), S9 metabolic activation: without S9, exposure time: 24 hours | 2.28 | 2.68 | 96.5
concentration: 102 (µM), S9 metabolic activation: with S9, exposure time: 3-4 hours | 0.42 | 1.78 | 80.9
concentration: 102 (µM), S9 metabolic activation: without S9, exposure time: 24 hours | 2.1 | 2.72 | 105
concentration: 128 (µM), S9 metabolic activation: with S9, exposure time: 3-4 hours | 0.26 | 1.88 | 108
concentration: 128 (µM), S9 metabolic activation: without S9, exposure time: 24 hours | 2.74 | 3.22 | 81.2
concentration: 160 (µM), S9 metabolic activation: with S9, exposure time: 3-4 hours | 0.28 | 2.3 | 90.1
concentration: 160 (µM), S9 metabolic activation: without S9, exposure time: 24 hours | 2.74 | 2.76 | 77.1
concentration: 200 (µM), S9 metabolic activation: with S9, exposure time: 3-4 hours | 0.34 | 2.08 | 83.7
concentration: 200 (µM), S9 metabolic activation: without S9, exposure time: 24 hours | 2.84 | 3.36 | 66.8
